{"source": "the supplement of paper PMC3334620", "note": "In all, about 33,000 sequences were measured (“E-score (-0.5 to 0.5)”: median about -0.036, highest 2% from about 0.37 on). The list shows a part of the results."}
{"target": "T1, Yer064c (UniProt P40041)", "T1 sequence": "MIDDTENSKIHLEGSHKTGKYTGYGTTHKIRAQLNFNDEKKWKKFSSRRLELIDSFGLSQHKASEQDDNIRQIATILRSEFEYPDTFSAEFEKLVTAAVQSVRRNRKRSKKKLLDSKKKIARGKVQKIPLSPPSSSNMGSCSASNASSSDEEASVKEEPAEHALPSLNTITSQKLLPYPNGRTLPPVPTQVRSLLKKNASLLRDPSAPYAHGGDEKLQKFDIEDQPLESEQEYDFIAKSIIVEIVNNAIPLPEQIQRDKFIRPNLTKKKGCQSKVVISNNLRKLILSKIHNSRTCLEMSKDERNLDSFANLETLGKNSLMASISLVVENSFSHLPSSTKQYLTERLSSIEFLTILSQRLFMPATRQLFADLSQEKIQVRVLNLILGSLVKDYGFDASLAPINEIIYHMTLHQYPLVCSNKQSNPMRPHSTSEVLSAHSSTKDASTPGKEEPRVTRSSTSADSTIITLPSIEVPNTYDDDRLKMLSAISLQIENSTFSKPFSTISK", "experiment": "PBM E-score (8-mer binding enrichment) (E-score (-0.5 to 0.5)); higher = stronger / more preferred TF binding; most listed sequences are background and not binding sites", "conditions": "protein concentration: 200 nM; construct: GST-full length", "how_it_was_run": "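GST-tagged yeast TFs (full-length or DNA-binding domain) were made by PURExpress in vitro transcription/translation and applied at about 100-200 nM to universal all-10-mer Agilent arrays. The arrays were made double-stranded by primer extension, on fresh or once-stripped slides. Bound protein was detected with fluorescent anti-GST, and scans were normalised with masliner. Each ungapped eight-base word, pooled with its reverse complement, received an E-score (modified Wilcoxon-Mann-Whitney statistic) from the Universal PBM Analysis Suite.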"}
{"sequence": "ACCGGGCT", "PBM E-score": -0.143}
{"sequence": "CATCACAC", "PBM E-score": 0.0825}
{"sequence": "AGATTGCT", "PBM E-score": -0.193}
{"sequence": "CACCATCC", "PBM E-score": -0.125}
{"sequence": "GAACAATC", "PBM E-score": 0.109}
{"sequence": "AAATCAGC", "PBM E-score": 0.227}
{"sequence": "AGTGATGC", "PBM E-score": -0.128}
{"sequence": "GTTGAATA", "PBM E-score": 0.0427}
{"sequence": "CTTCGCCC", "PBM E-score": -0.24}
{"sequence": "CATGCAGG", "PBM E-score": -0.152}
{"sequence": "ATATCCAC", "PBM E-score": -0.0172}
{"sequence": "AAATGAGC", "PBM E-score": 0.058}
{"sequence": "AGGCGTAT", "PBM E-score": 0.0624}
{"sequence": "ATTCGGCG", "PBM E-score": -0.0132}
{"sequence": "CGTACCTC", "PBM E-score": -0.0258}
{"sequence": "GGCGAACA", "PBM E-score": -0.0803}
{"sequence": "CAACGCAA", "PBM E-score": 0.0568}
{"sequence": "GCTAACAC", "PBM E-score": 0.11}
{"sequence": "CCCGGCGG", "PBM E-score": -0.182}
{"sequence": "CGTCGTCC", "PBM E-score": -0.144}
{"sequence": "ACATGGGG", "PBM E-score": -0.139}
{"sequence": "CCCATAAG", "PBM E-score": -0.0919}
{"sequence": "AATGGCTA", "PBM E-score": 0.26}
{"sequence": "ACCCTAGG", "PBM E-score": -0.116}
{"sequence": "AGCCTCCT", "PBM E-score": 0.00409}
{"sequence": "CCAAAAGA", "PBM E-score": 0.0212}
{"sequence": "GGGTATGA", "PBM E-score": 0.241}
{"sequence": "CACCGACG", "PBM E-score": 0.00175}
{"sequence": "GTTAGCAA", "PBM E-score": 0.0327}
{"sequence": "AGGCGAGC", "PBM E-score": -0.253}
{"sequence": "TCGTGAGA", "PBM E-score": 0.0601}
{"sequence": "AACCAGGC", "PBM E-score": -0.0844}
{"sequence": "CTCGCACC", "PBM E-score": 0.00496}
{"sequence": "AAAGGCGC", "PBM E-score": -0.186}
{"sequence": "TCAAGTCA", "PBM E-score": 0.379}
{"sequence": "GTCCGGCA", "PBM E-score": -0.0202}
{"sequence": "AAGGCGAA", "PBM E-score": -0.0442}
{"sequence": "ACGTTTTC", "PBM E-score": -0.169}
{"sequence": "AAGAATTC", "PBM E-score": -0.135}
{"sequence": "GTCTGAAC", "PBM E-score": -0.0604}
{"sequence": "ATTAAAAA", "PBM E-score": 0.2}
{"sequence": "AGGCAACC", "PBM E-score": -0.0719}
{"sequence": "CCAGTGAC", "PBM E-score": 0.168}
{"sequence": "ACCGGCAT", "PBM E-score": -0.136}
{"sequence": "ATATGAAC", "PBM E-score": 0.0999}
{"sequence": "GTCACGGA", "PBM E-score": 0.158}
{"sequence": "CAGATTGG", "PBM E-score": -0.216}
{"sequence": "ATATGGGG", "PBM E-score": -0.0837}
{"sequence": "AAGAAGTA", "PBM E-score": -0.0912}
{"sequence": "AAGATACA", "PBM E-score": -0.0401}
{"sequence": "ATGGGGGC", "PBM E-score": -0.416}
{"sequence": "CAGTCCCC", "PBM E-score": -0.225}
{"sequence": "GGTCTGTA", "PBM E-score": -0.117}
{"sequence": "AGAGAGCG", "PBM E-score": -0.295}
{"sequence": "CACCAAGC", "PBM E-score": -0.0245}
{"sequence": "CACAAATG", "PBM E-score": 0.111}
{"sequence": "ACTAGACG", "PBM E-score": 0.128}
{"sequence": "CAACGGAA", "PBM E-score": -0.104}
{"sequence": "GCGGACCC", "PBM E-score": -0.146}
{"sequence": "GTACGGCA", "PBM E-score": -0.147}
{"sequence": "GCTAGTGA", "PBM E-score": 0.135}
{"sequence": "ACCCTCAT", "PBM E-score": -0.0522}
{"sequence": "AGTACCAC", "PBM E-score": 0.0908}
{"sequence": "CGGCGCAG", "PBM E-score": 0.0139}
{"sequence": "CCGGTTAG", "PBM E-score": -0.124}
{"sequence": "ATACTCCG", "PBM E-score": 0.0839}
{"sequence": "TAACAGGA", "PBM E-score": -0.00109}
{"sequence": "AACGAGTG", "PBM E-score": -0.0801}
{"sequence": "CACGCATC", "PBM E-score": -0.103}
{"sequence": "GCCGATAC", "PBM E-score": -0.208}
{"sequence": "CGAAATGC", "PBM E-score": -0.137}
{"sequence": "CAACAATA", "PBM E-score": -0.0218}
{"sequence": "ACCCCCCT", "PBM E-score": -0.244}
{"sequence": "AGGATTCA", "PBM E-score": 0.24}
{"sequence": "TACTGTCA", "PBM E-score": -0.0497}
{"sequence": "CTACCGAA", "PBM E-score": 0.0592}
{"sequence": "CTGGAGTC", "PBM E-score": 0.39}
{"sequence": "CTCCAAGA", "PBM E-score": 0.153}
{"sequence": "CGCCTAAC", "PBM E-score": -0.00756}
{"sequence": "ACTTCCCG", "PBM E-score": -0.0355}
{"sequence": "GGCTAGTA", "PBM E-score": 0.0403}
{"sequence": "AGTTAGGA", "PBM E-score": 0.0663}
{"sequence": "ACCCTCGT", "PBM E-score": -0.122}
{"sequence": "CATGGTAA", "PBM E-score": 0.00616}
{"sequence": "AATTGCGC", "PBM E-score": -0.0586}
{"sequence": "CTTTCCAC", "PBM E-score": -0.237}
{"sequence": "ACGTATAC", "PBM E-score": 0.0854}
{"sequence": "GTGCGACA", "PBM E-score": -0.0826}
{"sequence": "AGGAATGA", "PBM E-score": 0.202}
{"sequence": "ACGCAAGT", "PBM E-score": -0.149}
{"sequence": "AGTTAGTC", "PBM E-score": 0.447}
{"sequence": "CATGGCAC", "PBM E-score": -0.209}
{"sequence": "CGCGGGAC", "PBM E-score": -0.201}
{"sequence": "CCACTCGA", "PBM E-score": 0.113}
{"sequence": "AACATTGA", "PBM E-score": 0.242}
{"sequence": "CGTGAGAA", "PBM E-score": -0.02}
{"sequence": "CGTGGGCA", "PBM E-score": -0.285}
{"sequence": "CGTATCGA", "PBM E-score": -0.111}
{"sequence": "CACTTCCG", "PBM E-score": -0.172}
{"sequence": "CAAGTTGA", "PBM E-score": 0.117}
{"sequence": "GACCATCA", "PBM E-score": 0.0375}
{"sequence": "CTGCCGCC", "PBM E-score": -0.248}
{"sequence": "GTTGCCTA", "PBM E-score": -0.297}
{"sequence": "AAAGTTAA", "PBM E-score": 0.154}
{"sequence": "ACTTATAC", "PBM E-score": 0.143}
{"sequence": "AACGGCAG", "PBM E-score": -0.0489}
{"sequence": "AAGTAAGT", "PBM E-score": 0.128}
{"sequence": "CAATTCTC", "PBM E-score": -0.0313}
{"sequence": "GATCTCGC", "PBM E-score": -0.133}
{"sequence": "ATTGTGTC", "PBM E-score": 0.128}
